Results taken from PMC4336329 (PLoS ONE, 2015).
Hit rate of the full screen: of about 310,000 compounds, about 14,000 (4.5%) showed an effect of 50% or more. The effect is printed as a negative number. The list shows a part of the results.

biological target: human ether-à-go-go-related gene (hERG) potassium channel (human, UniProt Q12809); test: primary screen, population patch clamp on CHO cells stably expressing hERG
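Note: peak tail current of the secondary pulse compared with the same well before compound.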

Sequence of human ether-à-go-go-related gene (hERG) potassium channel (Q12809 whole entry, looked up): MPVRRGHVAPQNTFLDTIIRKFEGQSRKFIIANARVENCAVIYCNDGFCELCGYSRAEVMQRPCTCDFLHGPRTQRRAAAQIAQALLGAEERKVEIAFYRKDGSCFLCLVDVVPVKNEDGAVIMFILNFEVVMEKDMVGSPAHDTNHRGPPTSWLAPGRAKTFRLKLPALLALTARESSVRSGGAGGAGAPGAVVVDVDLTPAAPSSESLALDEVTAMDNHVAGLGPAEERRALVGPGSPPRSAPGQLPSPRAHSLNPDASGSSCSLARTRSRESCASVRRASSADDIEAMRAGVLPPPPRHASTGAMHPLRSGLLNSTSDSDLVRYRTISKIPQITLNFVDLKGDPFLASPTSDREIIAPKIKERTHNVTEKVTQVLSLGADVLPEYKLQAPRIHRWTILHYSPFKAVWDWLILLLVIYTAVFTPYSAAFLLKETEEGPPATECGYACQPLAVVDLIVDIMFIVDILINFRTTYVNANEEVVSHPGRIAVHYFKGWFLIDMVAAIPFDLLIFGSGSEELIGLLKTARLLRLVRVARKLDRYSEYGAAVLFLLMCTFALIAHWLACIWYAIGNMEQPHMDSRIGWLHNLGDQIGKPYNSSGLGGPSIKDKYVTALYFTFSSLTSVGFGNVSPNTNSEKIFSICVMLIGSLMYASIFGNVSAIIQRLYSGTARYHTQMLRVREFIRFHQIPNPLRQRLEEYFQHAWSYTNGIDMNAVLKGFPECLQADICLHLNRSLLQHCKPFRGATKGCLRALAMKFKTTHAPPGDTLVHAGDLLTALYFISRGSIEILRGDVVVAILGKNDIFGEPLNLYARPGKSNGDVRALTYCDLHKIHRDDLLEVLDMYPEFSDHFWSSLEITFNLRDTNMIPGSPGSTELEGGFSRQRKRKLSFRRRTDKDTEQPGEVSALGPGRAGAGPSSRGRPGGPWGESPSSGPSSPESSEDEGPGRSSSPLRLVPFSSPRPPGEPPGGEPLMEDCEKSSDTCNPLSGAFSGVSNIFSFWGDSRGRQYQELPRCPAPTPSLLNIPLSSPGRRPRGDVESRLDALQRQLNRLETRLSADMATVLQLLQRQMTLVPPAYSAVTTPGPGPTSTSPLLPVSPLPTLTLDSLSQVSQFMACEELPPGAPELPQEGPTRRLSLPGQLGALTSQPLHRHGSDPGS

Structure (SMILES) | hERG current change (%, negative = inhibition) at 10uM [%]
COc1ccc(OC)c(S(=O)(=O)N(C(C)=O)c2ccc3oc(=O)sc3c2)c1 | -21.2
CC1Cn2c(nc3sc4c(c3c2=O)CC(C)(C)OC4)N1CCO (stereo not drawn) | 11.7
CCOc1ccc(S(=O)(=O)NCCC(=O)Nc2nnc(C)s2)cc1 | -13.7
CCOc1ccccc1NC(=S)N1CCN(c2cccc(OC)c2)CC1 | 3.57
COc1nnc(-c2ccc(N3CCOCC3)c(NC(=O)c3ccccc3)c2)c2ccccc12 | -19.5
Cc1ccc(-c2nnc(N3CCN(C(=O)c4cccs4)CC3)c3ccccc23)cc1 | -65.4
CC1CCCCN1C(=O)c1ccc(S(=O)(=O)N2CCCCC2C)cc1 (stereo not drawn) | -9.35
COc1cc(/C=C2/C(=O)N=C(N)N2C)cc(OC)c1OC | 5.91
CCN(C(=O)CSc1nnc(-c2ccncc2)n1Cc1ccccc1)C1CCS(=O)(=O)C1 (stereo not drawn) | -8.8
CCOC(=O)c1ccc(OCC(=O)c2ccc(O)cc2O)cc1 | -7.44
Cc1cc(C)cc(C(=O)N2CCN=C2c2ccccc2)c1 | 9.92
COC(=O)c1cccc(/C=N/NC(N)=S)c1O | 6.76
CCn1ncc(Cl)c1C(=O)Nc1ccc2c(c1)CCC2 | 3.85
COc1ccc(-c2cc(C(F)(F)F)nc(N3CCCCC3)n2)cc1OC | 14.4
CCCCNC(=S)N1CCn2cccc2C1c1ccccc1 (stereo not drawn) | 11.3
CC1CN(Cc2cn(C)nc2-c2ccc(Oc3ccccc3)cc2)CCN1C (stereo not drawn) | -57.2
COc1ccc(NC(=O)CSc2nc(N)c(C(=O)Nc3ccc(N(C)C)cc3)s2)cc1 | 12.1
O=C(COc1ccc(Br)cc1)NCc1ccccn1 | -8.53
CC(=O)COc1ccccc1OC(=O)c1ccco1 | -8.68
Cn1c(NC(=O)C(C)(C)Oc2ccc(Cl)cc2)cc(=O)n(C)c1=O | -15
Cc1nnc(NC(=O)CSc2nnc(CC(=O)Nc3ccccc3Cl)n2C)s1 | 17.6
COc1ccc(OC)c(NC(=S)N2CCN(c3ccccn3)CC2)c1 | -2.8

Structure (SMILES) | hERG current change (%, negative = inhibition) at 10uM [%]
S=c1sc2c(N3CCOCC3)ncnc2n1-c1ccccc1 | -3.79
COC(CNC(=O)C(=O)Nc1cc2c3c(c1)CC(=O)N3CCC2)OC | 13.3
Cc1cc(=O)oc2cc(NS(=O)(=O)c3ccccc3)ccc12 | 14
O=C(/C=C/c1ccc(Cl)cc1)Nc1ccccc1N1CCOCC1 | 2.84
CN(Cc1ccccc1)C(=S)NC(=O)c1cccs1 | 8.32
CC(C)C(NC(=O)c1ccccc1NC(=O)c1ccccc1)C(=O)NCCCn1ccnc1 (stereo not drawn) | -18.2
Cc1ccc(C)c(N2CC(C(=O)O)CC2=O)c1 (stereo not drawn) | -2.08
COc1ccc(C(=O)N/C(=C\c2cn(S(=O)(=O)N(C)C)c3ccccc23)C(=O)NCCN2CCOCC2)cc1OC | -4.68
C=CCNC(=O)c1onc(CSc2cc(C)cc(C)c2)c1C(=O)NCC=C | 10.4
Cc1cc(C(F)(F)F)n(-c2nc(C(=O)NN)cs2)n1 | 22.4
CCOc1ccc2nc(N(CCN(C)C)C(=O)c3ccc4c(c3)CCCC4)sc2c1.Cl | -1.63
CCOC(=O)c1nnn(-c2nonc2OC)c1-c1ccccc1 | -5.93
O=C(CN1C(=O)NC(c2ccccc2)(c2ccccc2)C1=O)NCc1cccs1 | 5.95
CC(C)CCNC(=S)Nc1ccccn1 | -5.33
Cc1nn(Cc2nnc(SCC(=O)Nc3ccc(Cl)cc3)n2C)c(C)c1[N+](=O)[O-] | -22.9
Cc1cc2ncn(-c3nnnn3-c3ccccc3)c2cc1C | -10.1
CCN(CC)c1ccc(S(=O)(=O)N2CCOCC2)cc1NC(=O)CSc1nncs1 | -34.9
COc1cc(N2C(=O)c3ccccc3C2=O)c(Cl)cc1C(=O)OCC(=O)N(C)C | -28.5
C#CCSc1nnnn1-c1ccc(Br)c(C)c1 | 0.768
COc1ccc(C(=O)COC(=O)C(CCSC)NC(=O)COc2ccccc2)c(OC)c1 (stereo not drawn) | -5.38
Cc1cccc(Cn2c(=O)n(CCCC(=O)NCc3ccco3)c(=O)c3ccccc32)c1 | -43.4
O=c1c2ccccc2nc2n1C(CSc1ccc(F)cc1)CS2 (stereo not drawn) | -33.3

Structure (SMILES) | hERG current change (%, negative = inhibition) at 10uM [%]
CCCCOC(=O)c1ccc(Nc2ccc([N+](=O)[O-])cn2)cc1 | 14.5
O=C(CCCCCBr)N1CCC(CC2CC(c3cccc(Br)c3)=NO2)(C(=O)NCC2CCCCC2)CC1 (stereo not drawn) | -69
CCCCCCc1c(C)c2ccc(OCC(=O)N3CCC[C@H]3C(=O)O)c(C)c2oc1=O | 8.28
COC(=O)/C=c1/s/c(=C(\C#N)C(=O)NCc2ccco2)n(-c2ccccc2)c1=O | 15.9
CCc1nnc(NC(=O)CSc2nnc(C3CCCCC3)n2-c2ccccc2)s1 | -18.9
O=C1C=C(c2cc(Cl)cc(Cl)c2)C[C@@H](c2ccc3c(c2)OCO3)C1 | -2.33
N#Cc1cc(N)c(Nc2ccccc2)cc1C#N | 1.68
CCOC(=O)c1ccc(NC(=O)N2C3CCCC2CC(NC(C)=O)C3)cc1 (stereo not drawn) | -11.6
COc1ccc(OC)c(CCNC(=O)CS(=O)(=O)Cc2nc(-c3ccc(C)cc3)oc2C)c1 | -20.1
COc1ccc(CCN2C(=O)c3cccc4c(C(=O)N5CCCCC5)ccc(c34)C2=O)cc1OC | 3.8
CC1CCN(S(=O)(=O)N2CCC(C(=O)NCCC3=CCCCC3)CC2)CC1 | 47
Cc1nc(SCC(=O)N2CCN(c3ccccc3)CC2)n[nH]1 | 19
CC(C)(C)c1cc[n+](C2=C([O-])c3ccccc3C(=O)/C2=N\S(=O)(=O)c2ccccc2)cc1 | -31.9
CCC(C)c1c(O)nc(SCC(=O)N2CCCCC2)[nH]c1=O (stereo not drawn) | 21.3
Cc1cc2ncn(CCC(=O)NC(C)(C)C)c2cc1C | 2.63
COc1ccc2oc(=O)c(C(=O)Nc3ccccc3C)cc2c1 | 9.87
O=C(/C=C/Nc1cccc(C(F)(F)F)c1)C(F)(F)F | -7.61
O=C(C1CCN(Cc2ccc(F)cc2)CC1)N(CCO)Cc1ccccc1 | -10.6
Cc1cc(/C=N/NC(=O)c2ccc(O)cc2)c(C)n1C1CC1 | 20.4
CN1CCN(C(=O)c2ccccc2NC(=O)Cc2ccccc2)CC1 | 5.33
CCOc1ccc(N/C=C/C(=O)c2ccc(OC)cc2)c([N+](=O)[O-])c1 | 24.5
O=[N+]([O-])c1ccc(N2CCN(c3ccc(Cl)nn3)CC2)c(Cl)c1 | -23.7

Structure (SMILES) | hERG current change (%, negative = inhibition) at 10uM [%]
CCCC(=O)NNC(=O)CCC(=O)Nc1ccccc1Cl | 18.4
Cc1[nH]c2ccccc2c1/C=N/Nc1nc(N2CCCCC2)nc(N2CCCCC2)n1 | 7.43
O=C(CSc1ncccn1)NC(=O)c1ccccc1 | 3.87
O=C(COC(=O)c1ccc(S(=O)(=O)N2CCCCC2)cc1)Nc1ccccc1 | 15.8
CCN(CC(=O)Nc1c(F)cccc1F)C(=O)C1(c2ccccc2)CC1 | -14.6
Cc1cc(C)c(OCC(=O)NCCCn2nc(C)cc2C)c(C)c1 | -22.6
Cc1ccc2nc(N3CC(=O)Nc4ccccc43)nc(-c3ccccc3)c2c1 | 11.1
c1ccc(-c2ccccn2)nc1 | 1.05
COc1ccc(CCNC(=O)c2cc(S(=O)(=O)N3CCC4(CC3)OCCO4)ccc2F)cc1OC | -3.9
COc1ccc(C(C)=O)cc1CSc1nc2nc(C)cc(C)n2n1 | -7.3
C=C1CCN([C@@H](CC(C)C)C(=O)Nc2nc3ccc(Cl)cc3s2)S(=O)(=O)c2ccccc21 | -1.16
c1ccc(C2=Nn3c(nnc3-c3n[nH]c4c3CCC4)SC2)cc1 | -34.7
CN(C)S(=O)(=O)c1ccc(S(=O)(=O)N2CCN(CCC#N)CC2)cc1 | -1.43
Cn1c(=O)c2c(nc(N3CCN(c4ccccn4)CC3)n2Cc2ccc(Cl)cc2Cl)n(C)c1=O | 0.235
O=C(NCCc1ccccn1)c1ccc(NS(=O)(=O)c2ccc(F)cc2)cc1 | 25
CCN(CC(=O)Nc1c(F)cccc1F)C(=O)c1cc(-c2cccs2)nn1-c1ccccc1 | -17.4
COCC(C)NC(=O)C1CC(=O)N(c2ccc(C)cc2)C1 (stereo not drawn) | 7.94
CCOc1nc(-c2ccccc2)ccc1-c1noc(-c2cccnc2)n1 | 6.49
CC(=O)N1CCN(S(=O)(=O)c2cccc(C(=O)N(Cc3ccccc3)c3ccc(C)cc3)c2)CC1 | -61.2
CC(C)N1CCN(Cc2cccc(-n3cccn3)c2)CC1CCO (stereo not drawn) | -12.3
COCc1ccc(CN2CCc3c([nH]c4ccccc34)C2C(C)(C)C)o1 (stereo not drawn) | 7.25
